Laboratory results: US12617790B2, “Mitragynine analogs and uses thereof” (Memorial Sloan-Kettering Cancer Center, priority 2015, dated 2026)

Test system: C57/BL6 mice
Conditions: C57/BL6, sc

Q: For `CC[C@@H]1CN2CC[C@]3(Nc4cccc(OC)c4C3=O)C2C[C@@H]1/C(=C\OC)C(=O)OC` (stereo partly drawn) [VM1502, (E)-methyl 2-((1'S,6'S,7'S)-6′-ethyl-4-methoxy-3-oxo-3′,5′,6′,7′,8′,8a′-hexahydro-2′H-spiro[indoline-2,1′-indolizine]-7′-yl)-3-methoxyacrylate], which “analgesia in E1-E11 double MOR-1 knockout mice” value is on record?
A: eliminated in MOR-1 knockout mice
